Results: paper PMC11752402 (ACS Nano, 2024)

Biological target: recombinant human TLR4 (human, UniProt O00206 fragment)
Experiment: single-molecule force spectroscopy

Sequence of UniProt O00206 (O00206 24-631): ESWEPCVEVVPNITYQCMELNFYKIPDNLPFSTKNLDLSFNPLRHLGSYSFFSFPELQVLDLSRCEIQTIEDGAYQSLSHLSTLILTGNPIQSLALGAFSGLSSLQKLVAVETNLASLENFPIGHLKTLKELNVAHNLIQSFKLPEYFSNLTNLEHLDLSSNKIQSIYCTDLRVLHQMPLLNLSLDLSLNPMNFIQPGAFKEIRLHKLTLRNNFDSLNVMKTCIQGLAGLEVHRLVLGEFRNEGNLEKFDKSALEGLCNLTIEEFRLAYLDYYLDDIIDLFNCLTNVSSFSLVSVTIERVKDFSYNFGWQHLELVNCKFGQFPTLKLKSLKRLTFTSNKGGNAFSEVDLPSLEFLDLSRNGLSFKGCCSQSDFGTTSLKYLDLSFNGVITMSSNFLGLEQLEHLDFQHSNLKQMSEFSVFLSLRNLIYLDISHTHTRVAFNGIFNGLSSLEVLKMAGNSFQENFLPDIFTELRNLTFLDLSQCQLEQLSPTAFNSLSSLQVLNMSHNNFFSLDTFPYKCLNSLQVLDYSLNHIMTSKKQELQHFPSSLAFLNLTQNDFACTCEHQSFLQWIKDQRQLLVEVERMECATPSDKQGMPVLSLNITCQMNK

B1: Staphylococcus aureus iron-regulated surface determinant protein B (IsdB) (natural protein)
chain: not shown
koff: 6.52 ± 1.44 s⁻¹
